Results as given in the antibiotic and cytotoxicity screens of Wong et al. (2023).
The list shows a part of the results.

Tests used:
HSkMC = human skeletal muscle cells; experiment: cytotoxicity call (relative viability < 0.9); settings: 10 µM
HepG2 = experiment: cytotoxicity call (relative viability < 0.9); settings: 10 µM
S. aureus RN4220 = experiment: growth inhibition call (relative growth <= 0.2); settings: 50 µM

For `CNc1ncnc2c1ncn2[C@@H]1O[C@H](CO)[C@@H](O)[C@H]1O`, the cytotoxicity call (HSkMC) was “inactive”, the cytotoxicity call (HepG2) was “inactive” and the growth inhibition call (S. aureus RN4220) was “inactive”.
`C[C@@H]1CN([C@@H](C)CO)C(=O)CCCn2nncc2CO[C@@H]1CN(C)C(=O)c1cc(-c2ccccc2)on1` was tested, and the cytotoxicity call (HSkMC) was “inactive”, the cytotoxicity call (HepG2) was “inactive” and the growth inhibition call (S. aureus RN4220) was “inactive”.
With `COc1ccc(CN(C)C[C@@H]2Oc3ccc(NC(=O)Cn4cnnn4)cc3CC(=O)N([C@@H](C)CO)C[C@@H]2C)cc1` the cytotoxicity call (HSkMC) was “inactive”, the cytotoxicity call (HepG2) was “inactive” and the growth inhibition call (S. aureus RN4220) was “inactive”.
In the case of `C[C@H](CO)N1C[C@H](C)[C@H](CN(C)S(=O)(=O)c2ccc(Cl)cc2)OCc2ccccc2-c2c(n(C)c3ccccc23)C1=O`, the cytotoxicity call (HSkMC) is reported as “inactive”, the cytotoxicity call (HepG2) is reported as “active” and the growth inhibition call (S. aureus RN4220) is reported as “inactive”.
For `CC(C)NC(=O)Nc1cccc2c1O[C@@H](CN(C)S(=O)(=O)c1ccc(F)cc1)[C@@H](C)CN([C@H](C)CO)C2=O`, the cytotoxicity call (HSkMC) was “inactive”, the cytotoxicity call (HepG2) was “inactive” and the growth inhibition call (S. aureus RN4220) was “inactive”.
`O=C(C[C@H]1CC[C@H](NC(=O)C2CC2)[C@H](CO)O1)NCCCN1CCOCC1` was tested, and the cytotoxicity call (HSkMC) was “inactive”, the cytotoxicity call (HepG2) was “inactive” and the growth inhibition call (S. aureus RN4220) was “inactive”.
With `C[C@@H]1CCCCO[C@@H](CN(C)CC2CCCCC2)[C@H](C)CN([C@@H](C)CO)C(=O)c2cc(NS(=O)(=O)c3cccs3)ccc2O1` the cytotoxicity call (HSkMC) was “inactive”, the cytotoxicity call (HepG2) was “inactive” and the growth inhibition call (S. aureus RN4220) was “inactive”.
In the case of `C[C@H](CO)N1C[C@H](C)[C@H](CN(C)S(=O)(=O)c2cn(C)cn2)Oc2ccc(NS(=O)(=O)c3ccccc3)cc2CC1=O`, the cytotoxicity call (HSkMC) is reported as “inactive”, the cytotoxicity call (HepG2) is reported as “inactive” and the growth inhibition call (S. aureus RN4220) is reported as “inactive”.
With `C[C@@H]1CN([C@@H](C)CO)C(=O)Cc2cc(NC(=O)Nc3ccc4c(c3)OCO4)ccc2O[C@@H]1CN(C)C(=O)Nc1cccc2ccccc12` the cytotoxicity call (HSkMC) was “inactive”, the cytotoxicity call (HepG2) was “inactive” and the growth inhibition call (S. aureus RN4220) was “inactive”.
With `C[C@@H]1CCCCO[C@H](CN(C)S(=O)(=O)c2ccc(F)cc2)[C@H](C)CN([C@H](C)CO)C(=O)c2cc(NS(C)(=O)=O)ccc2O1` the cytotoxicity call (HSkMC) was “inactive”, the cytotoxicity call (HepG2) was “inactive” and the growth inhibition call (S. aureus RN4220) was “inactive”.
`Cc1ccc(S(=O)(=O)N(C)C[C@@H]2Oc3ncc(-c4ccncc4)cc3C(=O)N([C@H](C)CO)C[C@@H]2C)cc1` was tested, and the cytotoxicity call (HSkMC) was “inactive”, the cytotoxicity call (HepG2) was “inactive” and the growth inhibition call (S. aureus RN4220) was “inactive”.
With `C[C@@H]1CCCCO[C@@H](CN(C)Cc2ccc(Cl)c(Cl)c2)[C@@H](C)CN([C@@H](C)CO)C(=O)c2cc(NC(=O)Nc3cccc4ccccc34)ccc2O1` the cytotoxicity call (HSkMC) was “inactive”, the cytotoxicity call (HepG2) was “active” and the growth inhibition call (S. aureus RN4220) was “inactive”.
With `COCC(=O)Nc1ccc2c(c1)C(=O)N(C)C[C@H](OC)[C@H](C)CN(C(=O)Cc1cccnc1)[C@@H](C)CO2` the cytotoxicity call (HSkMC) was “inactive”, the cytotoxicity call (HepG2) was “inactive” and the growth inhibition call (S. aureus RN4220) was “inactive”.
`Cc1ccc(S(=O)(=O)Nc2ccc3c(c2)CC(=O)N([C@H](C)CO)C[C@@H](C)[C@@H](CN(C)CC2CC2)O3)cc1` was tested, and the cytotoxicity call (HSkMC) was “inactive”, the cytotoxicity call (HepG2) was “inactive” and the growth inhibition call (S. aureus RN4220) was “inactive”.
For `Cc1nn(C)cc1NC(=O)C[C@@H]1CC[C@H]2[C@H](COc3ccc(NC(=O)C4CCOCC4)cc3C(=O)N2C)O1`, the cytotoxicity call (HSkMC) was “inactive”, the cytotoxicity call (HepG2) was “inactive” and the growth inhibition call (S. aureus RN4220) was “inactive”.
In the case of `CC(CCC(=O)O)C1CCC2C3CCC4CC(O)CCC4(C)C3CCC12C` (stereo not drawn), the cytotoxicity call (HSkMC) is reported as “inactive”, the cytotoxicity call (HepG2) is reported as “inactive” and the growth inhibition call (S. aureus RN4220) is reported as “inactive”.
In the case of `CNc1nc(N2CCCC2)nc(N)c1[N+](=O)[O-]`, the cytotoxicity call (HSkMC) is reported as “inactive”, the cytotoxicity call (HepG2) is reported as “inactive” and the growth inhibition call (S. aureus RN4220) is reported as “inactive”.
With `COCC#Cc1ccc2c(c1)O[C@H](CN(C)C(=O)c1ccccc1)[C@H](C)CN([C@H](C)CO)S2(=O)=O` the cytotoxicity call (HSkMC) was “inactive”, the cytotoxicity call (HepG2) was “inactive” and the growth inhibition call (S. aureus RN4220) was “inactive”.
For `CN(C)CCC=C1c2ccccc2C=Cc2ccccc21.Cl`, the cytotoxicity call (HSkMC) was “inactive”, the cytotoxicity call (HepG2) was “active” and the growth inhibition call (S. aureus RN4220) was “inactive”.
For `CCCOc1ccc2nc(NC(=O)OC)[nH]c2c1`, the cytotoxicity call (HSkMC) was “inactive”, the cytotoxicity call (HepG2) was “active” and the growth inhibition call (S. aureus RN4220) was “inactive”.
With `CN(C)C(=O)c1cccc(-c2cccc(-c3nc(C(=O)NC4CCCCC4)cc4c3[C@@H](CCO)N([S@@](=O)C(C)(C)C)C4)c2)c1` the cytotoxicity call (HSkMC) was “active”, the cytotoxicity call (HepG2) was “inactive” and the growth inhibition call (S. aureus RN4220) was “inactive”.
For `C[C@H](CO)N1C[C@H](C)[C@H](CN(C)C(=O)Nc2cccc3ccccc23)Oc2c(NC(=O)C3CCCCC3)cccc2C1=O`, the cytotoxicity call (HSkMC) was “inactive”, the cytotoxicity call (HepG2) was “inactive” and the growth inhibition call (S. aureus RN4220) was “inactive”.
In the case of `CO[C@@H]1CN(C)C(=O)c2ccc(NC(=O)C3CCCCC3)cc2OC[C@@H](C)N(C(=O)Nc2ccc(C(F)(F)F)cc2)C[C@H]1C`, the cytotoxicity call (HSkMC) is reported as “inactive”, the cytotoxicity call (HepG2) is reported as “inactive” and the growth inhibition call (S. aureus RN4220) is reported as “inactive”.
In the case of `CC(C)NC(=O)Nc1ccc2c(c1)C(=O)N([C@@H](C)CO)C[C@@H](C)[C@@H](CN(C)C(=O)NC1CCCCC1)O2`, the cytotoxicity call (HSkMC) is reported as “inactive”, the cytotoxicity call (HepG2) is reported as “inactive” and the growth inhibition call (S. aureus RN4220) is reported as “inactive”.
`COc1ccc(CN(C)C[C@@H]2Oc3c(NS(C)(=O)=O)cccc3C(=O)N([C@@H](C)CO)C[C@@H]2C)cc1` was tested, and the cytotoxicity call (HSkMC) was “inactive”, the cytotoxicity call (HepG2) was “inactive” and the growth inhibition call (S. aureus RN4220) was “inactive”.
With `Cc1ccc(S(=O)(=O)N(C)C[C@@H]2Oc3c(NC(=O)C4CCOCC4)cccc3C(=O)N([C@H](C)CO)C[C@@H]2C)cc1` the cytotoxicity call (HSkMC) was “inactive”, the cytotoxicity call (HepG2) was “inactive” and the growth inhibition call (S. aureus RN4220) was “inactive”.
